# Some of the results follow. These are noisy estimates, calculated here from bound and input reads.
# Molecular target: T1, Pho4 (S. cerevisiae) (UniProt P07270)
# T1 sequence: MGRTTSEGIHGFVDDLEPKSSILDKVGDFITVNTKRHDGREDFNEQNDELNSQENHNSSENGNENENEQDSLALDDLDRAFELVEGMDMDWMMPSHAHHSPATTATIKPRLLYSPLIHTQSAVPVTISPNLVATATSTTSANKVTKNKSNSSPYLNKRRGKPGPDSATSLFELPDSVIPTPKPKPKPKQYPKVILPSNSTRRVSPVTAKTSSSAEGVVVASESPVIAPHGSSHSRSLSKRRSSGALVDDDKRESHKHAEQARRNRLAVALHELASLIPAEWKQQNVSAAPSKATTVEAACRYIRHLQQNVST
# Assay: relative binding free energy (BET-seq); higher = weaker binding
# Settings: reference: library average
row,Sequence,relative binding free energy
1,TTATGCACGTGCTGTG,-0.09 kcal/mol
2,TTTTACACGTGAAGAG,0.24 kcal/mol
3,CGTGTCACGTGTGGCC,0.26 kcal/mol
4,TGGTACACGTGCGCGT,-0.04 kcal/mol
5,AGTTGCACGTGTCGTA,0.03 kcal/mol
6,AGGCGCACGTGAGCTG,0.17 kcal/mol
7,AAGTCCACGTGGTGGG,0.03 kcal/mol
8,TCCGGCACGTGATGTT,0 kcal/mol
9,GTGTGCACGTGCGTGC,-0.25 kcal/mol
10,TATGACACGTGGATAG,0.09 kcal/mol
11,GATCGCACGTGGAGGG,0.01 kcal/mol
12,GTTATCACGTGGGTGG,0.12 kcal/mol
13,AAAGTCACGTGGGGGC,-0.11 kcal/mol
14,TATATCACGTGTTGTT,0.1 kcal/mol
15,TAGCGCACGTGGTGTG,-0.29 kcal/mol
16,ATGATCACGTGGCGGT,0.15 kcal/mol
17,ATTAGCACGTGAGTTG,0.01 kcal/mol
18,GATTTCACGTGTTCTT,0.29 kcal/mol
19,ACGAACACGTGGAGGG,0.07 kcal/mol
20,GTAGGCACGTGTGCGC,-0.08 kcal/mol
21,GGTATCACGTGTGTAT,0.19 kcal/mol
22,GGAATCACGTGTTGGT,0.29 kcal/mol
23,AGGTGCACGTGTGTAT,0.01 kcal/mol
24,GGGGTCACGTGTAATC,0.27 kcal/mol
25,TGGGGCACGTGTAGGG,0.04 kcal/mol

row,Sequence,relative binding free energy
1,AGTTTCACGTGGCCTT,0.34 kcal/mol
2,GTAATCACGTGGTGTC,0.05 kcal/mol
3,GGGTTCACGTGCTCGG,0.2 kcal/mol
4,TTAGGCACGTGCAGCG,-0.15 kcal/mol
5,CTGTACACGTGAGGTG,0.24 kcal/mol
6,AGTTACACGTGGGCCT,0.09 kcal/mol
7,AAGTCCACGTGTGTGT,-0.06 kcal/mol
8,TTTTGCACGTGGAAGT,0.11 kcal/mol
9,GGTTACACGTGGGGAT,0.09 kcal/mol
10,CGGTGCACGTGCTGTT,-0.11 kcal/mol
11,AAACTCACGTGTTGTA,0.39 kcal/mol
12,AAATGCACGTGAAGTT,0.34 kcal/mol
13,GATTTCACGTGAATTT,0.57 kcal/mol
14,TGTAGCACGTGGGCTT,-0.17 kcal/mol
15,GGTCTCACGTGAAGTG,0.44 kcal/mol
16,GACGGCACGTGGGGTC,-0.16 kcal/mol
17,GCAGGCACGTGATGGT,-0.07 kcal/mol
18,GTGAGCACGTGGGAGC,-0.27 kcal/mol
19,CCGGGCACGTGAGAGG,0.03 kcal/mol
20,TTTTGCACGTGGTCGT,-0.05 kcal/mol
21,GGTAGCACGTGTCGGG,-0.03 kcal/mol
22,GCAGTCACGTGCGGTG,0.01 kcal/mol
23,TTTTGCACGTGGTGAC,-0.01 kcal/mol
24,GTTGTCACGTGACTTA,0.32 kcal/mol
25,TAGTGCACGTGGCAGG,-0.17 kcal/mol

row,Sequence,relative binding free energy
1,GAGTTCACGTGACGGG,0.38 kcal/mol
2,GTGGACACGTGGTGGC,-0.05 kcal/mol
3,ATTTGCACGTGTTATA,-0.01 kcal/mol
4,GTTGGCACGTGTAAAA,0.16 kcal/mol
5,TAAATCACGTGGTGAT,0.09 kcal/mol
6,GTTGACACGTGAAGGT,0.38 kcal/mol
7,TAGTACACGTGAGGTG,0.19 kcal/mol
8,AGGTGCACGTGAGGCT,0.13 kcal/mol
9,CGAGGCACGTGTGGGG,0 kcal/mol
10,AGTGGCACGTGGTACG,-0.29 kcal/mol
11,CGTTGCACGTGGAAGT,0.06 kcal/mol
12,TAGAACACGTGGTGGG,0.02 kcal/mol
13,TGATACACGTGTAGGG,0.14 kcal/mol
14,AGCAACACGTGTTGGG,-0.03 kcal/mol
15,GTTTACACGTGGTTCG,0.09 kcal/mol
16,GGAGGCACGTGGTGAC,-0.13 kcal/mol
17,GTATGCACGTGTTGTT,-0.04 kcal/mol
18,TAGGCCACGTGTGTGT,-0.12 kcal/mol
19,GGTCACACGTGAGGGC,0.34 kcal/mol
20,TTGCACACGTGAGTGT,0.18 kcal/mol
21,TTTGCCACGTGGTAAG,-0.15 kcal/mol
22,GATTTCACGTGAGTAT,0.48 kcal/mol
23,AGTTTCACGTGGCTAT,0.17 kcal/mol
24,GAGTTCACGTGGCGGC,0.25 kcal/mol
25,TTTGTCACGTGTCTCG,0.14 kcal/mol

row,Sequence,relative binding free energy
1,AAGGGCACGTGAAATT,0.27 kcal/mol
2,TAGTTCACGTGAGGGT,0.35 kcal/mol
3,AATGTCACGTGATCTT,0.24 kcal/mol
4,ATATTCACGTGGCGAT,0.16 kcal/mol
5,AAGGACACGTGATGGG,0.09 kcal/mol
6,ATCGTCACGTGGGCTT,0.06 kcal/mol
7,GACGTCACGTGTACGG,0.42 kcal/mol
8,ATAGGCACGTGGTGAG,-0.18 kcal/mol
9,TCTTTCACGTGGTTTC,0.26 kcal/mol
10,AGTTGCACGTGCTGGT,-0.04 kcal/mol
11,ACTGGCACGTGTTGTG,-0.15 kcal/mol
12,ATTTTCACGTGCTTTG,0.12 kcal/mol
13,CGATTCACGTGTTTTT,0.21 kcal/mol
14,TTTACCACGTGTTTTT,-0.05 kcal/mol
15,TGTCACACGTGTGCTT,0.15 kcal/mol
16,AAGTTCACGTGTTTCG,0.22 kcal/mol
17,AGTTACACGTGGGAAG,0.11 kcal/mol
18,AGTAACACGTGGTAGG,-0.13 kcal/mol
19,TTGGTCACGTGAAGTT,0.38 kcal/mol
20,GCTCGCACGTGGGGGA,-0.08 kcal/mol
21,GAATTCACGTGCGGGT,0.36 kcal/mol
22,AGGCTCACGTGGTATG,0 kcal/mol
23,TTAATCACGTGGTTGG,0.13 kcal/mol
24,ATTTTCACGTGATCGT,0.16 kcal/mol
25,AATAGCACGTGACGTG,0.06 kcal/mol

row,Sequence,relative binding free energy
1,TGCGTCACGTGTCTGT,0 kcal/mol
2,GGAGTCACGTGATGGT,0.24 kcal/mol
3,TGTAACACGTGAGTAA,0.11 kcal/mol
4,GATTTCACGTGCGTAT,0.2 kcal/mol
5,TTAGTCACGTGGATTA,0.18 kcal/mol
6,GATAGCACGTGGGGCT,-0.16 kcal/mol
7,CTTATCACGTGTTAAG,0.2 kcal/mol
8,TTATGCACGTGGGATA,-0.17 kcal/mol
9,TTTTTCACGTGTGGCG,0.41 kcal/mol
10,CGGGTCACGTGTTAAT,0.24 kcal/mol
11,TTTTGCACGTGGATCT,0.02 kcal/mol
12,GCGTTCACGTGGTTGC,0.2 kcal/mol
13,TTCTGCACGTGTTGTA,0.04 kcal/mol
14,GGCTACACGTGAGGGA,0.39 kcal/mol
15,GGTATCACGTGATTAT,0.13 kcal/mol
16,CGTTGCACGTGTGAAT,0.22 kcal/mol
17,TGGAGCACGTGGATGT,0.03 kcal/mol
18,CGGCGCACGTGTGGGG,-0.04 kcal/mol
19,ATGGGCACGTGTTATT,-0.14 kcal/mol
20,TAATACACGTGGGCTT,-0.16 kcal/mol
21,ACGTTCACGTGTGGTA,0.16 kcal/mol
22,ATTTTCACGTGGCGGC,0.29 kcal/mol
23,GTACGCACGTGTAGGT,-0.03 kcal/mol
24,CGCTTCACGTGTTGGT,0.23 kcal/mol
25,TCTGCCACGTGGTTTT,-0.07 kcal/mol

row,Sequence,relative binding free energy
1,TAATACACGTGGGGAA,-0.03 kcal/mol
2,TGTTTCACGTGGTACG,0.21 kcal/mol
3,TGTATCACGTGTCAGG,0.16 kcal/mol
4,TATATCACGTGTAGTG,0.09 kcal/mol
5,GGGTTCACGTGGAATG,0.35 kcal/mol
6,GGCAGCACGTGGTCGT,-0.01 kcal/mol
7,GGGTGCACGTGAGTGG,0.31 kcal/mol
8,GTGCTCACGTGGATGG,0.21 kcal/mol
9,GCGGTCACGTGTTTTG,0.24 kcal/mol
10,GGTGTCACGTGTACGG,0.06 kcal/mol
11,TGCGCCACGTGGGGAG,-0.31 kcal/mol
12,TAAGACACGTGTTATT,-0.03 kcal/mol
13,GTGAGCACGTGTGGCT,-0.09 kcal/mol
14,AGGTGCACGTGCGGAT,-0.14 kcal/mol
15,GGGTTCACGTGGATAA,0.41 kcal/mol
16,GGATGCACGTGTGAGC,0 kcal/mol
17,TGCAGCACGTGGAGGG,-0.18 kcal/mol
18,TAGAGCACGTGTTGTA,-0.04 kcal/mol
19,AGAGACACGTGCGGGG,-0.06 kcal/mol
20,TAAGTCACGTGAATTT,0.29 kcal/mol
21,TGTTCCACGTGAGGCT,0.22 kcal/mol
